This assay relates to NCI-H322M lung. Nature of the assay: NCI-60 cell line screen, 48 h.

“And” between values parts separate entries of the source, which are not always exact repeats. Equal entries are not always repeated.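 In this assay, cells in 96-well plates receive the compound at five concentrations for 48 hours. Endpoints are linearly interpolated between the surrounding concentrations. The concentration for 50% growth inhibition is given as GI50. Definition used: TGI = concentration required for complete inhibition of growth.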 Square brackets hold non-standard residues; d marks the D form. Peptide text beside a SMILES is read from it. * marks the point of attachment. X23 = COC1=CC(=O)N(C(=O)[C@@H](O*)C(C)C)[C@H]1Cc1ccccc1; Bn2Val = CC(C)[C@@H](C(=O)*)N(Cc1ccccc1)Cc1ccccc1; NMeV = CN[C@H](C(=O)O)C(C)C; dNMeA = CN[C@H](C)C(=O)O

As to `Cc1ccc2[nH]c3c(c2c1)N=c1ccccc1=NO3`, the GI50 was 28.9 µM and the TGI is greater than 100 µM.
On to `Cn1c(=O)c2c(nc3n2CCC(=O)N3CCCCl)n(C)c1=O`, for which the TGI is greater than 100 µM.
The molecule `COc1cc(O)c(C(=O)CC(C)=O)c(OC)c1` returned a TGI greater than 100 µM.
For the molecule `O=C1OCC(c2ccc(O)cc2)=C1c1cc(O)c(O)c(O)c1`, the GI50 is greater than 100 µM and the TGI was greater than 100 µM.
`C[N+](C)(C)CCOC(=O)/C=C/c1cnc[nH]1` returned a TGI greater than 500 µM.
On to `Oc1cc(Cl)cc2cc(Cl)cnc12`, for which the TGI was greater than 100 µM.
`COc1ccc(C(=O)c2c(-c3ccccc3NC(=O)C(F)(F)F)[nH]c3ccccc23)cc1` returned a TGI of 20.6 µM.
Consider `O=C1C=C2C=CC3CC2(O1)C1CCCCN31` (centres undefined), for which the GI50 was 23.7 µM and 22.2 µM and 54.9 µM; the TGI was 86.8 µM and 81.4 µM and > 100 µM.
On to `NCCOCn1cc(Cc2cccc(OCc3ccccc3)c2)c(=O)[nH]c1=O`, for which the TGI was greater than 100 µM.
As to `Fc1ccc2[nH]cc(-c3nc(-c4c[nH]c5ccncc45)cs3)c2c1`, the GI50 is 1.52 µM and the TGI was found to be 2.87 µM.
On the same counts, the results for `CCC[CH2][Sn]([CH2]CCC)([CH2]CCC)[O]C(=O)C(OC(C)=O)c1ccccc1` (centres undefined) are 0.153 µM and 0.339 µM.
As for `Oc1[nH]c(N=C2N=c3ccccc3=N2)c2ccccc12`, the GI50 is 11.1 µM and the TGI turned out to be 48.3 µM.
As for `C=C1C2C[C@@H]3OC4CC5O[C@]6(CC5OC4C(C)C3OC(=O)CC3CC[C@@H]4OC5C7OC8C[C@](CCC9CC(=C)[C@H](CCC(C[C@H]1C)O2)O9)(OC7C4O3)O[C@@H]85)C[C@@H]1O[C@@]2(CC(C)[C@@H]3OC(CC(=O)CCO)C(O)C[C@@H]3O2)CC(C)[C@@H]1O6` (some centres undefined), the TGI was 1.76 µM.
As to `COc1cccc(-n2ncc3c(N/N=C/c4ccc(C)cc4)ncnc32)c1`, the GI50 is greater than 25 µM and the TGI was greater than 25 µM.
In the case of `CC(=O)NNC(=S)/N=C\c1c(O)c2ccccc2oc1=O`, the TGI was greater than 100 µM.
The same measure, in the same setting: as for `CCN(CC)CCC(=O)OC1C(C)=CC(C)C(=O)CC(C(C)CC2CCC(O)C(OC)C2)OC(=O)C2CCCCN2C(=O)C(=O)[C@@]2(O)OC(CCC2C)CC(OC)\C(C)=C/C=C/C=C/C(C)CC(C)C(=O)C1OC` (some centres undefined), the figure is 23.2 µM.
`CC(N)Cc1ccc(Cl)cc1` (centres undefined) displayed a TGI greater than 100 µM.
In turn, `O=C1C(C(c2ccc([N+](=O)[O-])cc2)N2CCOCC2)=C(O)C(c2ccccc2)N1c1ccccc1` (centres undefined) displayed a TGI greater than 10 µM.
The same measure, in the same setting: as for `C[C@]12C(=O)C=CCC1=CC[C@@H]1[C@@H]2[C@H]2CC3(O)C(=O)O[C@@]4(C)[C@H]5C[C@@]6(C)[C@@H]7[C@@]2(O)[C@]1(OC[C@H]6C(=O)O5)O[C@]734` (some centres undefined), the figure is greater than 100 µM.
As to `CCN(CC)CCCOc1ccc2ncnc(Nc3ccc(Oc4cccc(C(F)(F)F)c4)c(Cl)c3)c2c1`, the GI50 is 1.21 µM and the TGI is 2.46 µM.
For the molecule `O=C(CNc1nccs1)Nn1cnc2ccc(S(=O)(=O)Nc3nccs3)cc2c1=O`, the TGI was greater than 100 µM.
With `CC(C)=O.O=C([O-])C(F)(F)F.O=C([O-])C(F)(F)F.O=C([O-])C(F)(F)F.O=C([O-])C(F)(F)F.[Rh+2].[Rh+2]`, the GI50 is greater than 100 µM and the TGI is greater than 100 µM.
For the molecule `Brc1c2nc3ccccc3nc2n2ccc3ccccc3c12`, the TGI is greater than 100 µM.
In the case of `O=C(Nc1cc(Cl)ccc1Cl)c1cc2cccc(Br)c2oc1=O`, the TGI was greater than 100 µM.
Same read-out and setting: as for `CC(=O)O[C@@]12CO[C@@H]1C[C@H](O)[C@@]1(C)C(=O)[C@H](O)C3=C(C)[C@@H](OC(=O)[C@H](O)[C@@H](NC(=O)OC(C)(C)C)c4ccccc4)C[C@@](O)([C@@H](OC(=O)c4ccccc4)C12)C3(C)C` (some centres undefined), the figure is greater than 100 µM.
`O=C(NC12CC3CC(CC(C3)C1)C2)C(=O)c1c[nH]c2ccc(Br)cc12` registered a TGI greater than 100 µM.
Same read-out and setting: for `Cc1cn(CCC(N)C(=O)O)c(=O)[nH]c1=O` (centres undefined) the value was greater than 100 µM; for `Nc1ncnc2c1sc(=S)n2-c1ccccc1`, greater than 100 µM.
Molecule `O=C(/C=C/c1ccc(OCc2ccccc2)cc1)NCc1ccc(C(=O)NCc2ccccc2)cc1` returned a TGI greater than 100 µM.
Turning to `COc1cc2c3c(n(CCCCNC(=O)OC(C)(C)C)c(=O)c2cc1OC)-c1cc2c(cc1C3=O)OCO2`, the GI50 was greater than 100 µM and the TGI was greater than 100 µM.
In the case of `COC1=CC(=O)C(Br)=CC1=O`, the TGI was greater than 100 µM.
`CO[C@H]1CC[C@]2(C)C3=CC[C@@]4(C)C(CC[C@@H]4C(C)CC[C@@H](C)C(C)C)C(=CCC2C1)O3` (some centres undefined): the TGI is greater than 25 µM.
As to `C/C(=N\NC(=O)CC#N)C(CN1CCCCC1)C(c1ccccc1)c1c(O)c2ccccc2oc1=O` (centres undefined), the TGI was greater than 100 µM.
The molecule `COC1=CC(=O)N(C(=O)[C@@H](OC(=O)[C@@H](C)N(C)C(=O)[C@@H]2CCCN2C(=O)[C@H](C(C)C)N(C)C(=O)[C@@H](NC(=O)[C@H](C(C)C)N(Cc2ccccc2)Cc2ccccc2)C(C)C)C(C)C)[C@H]1Cc1ccccc1` (Bn2Val-V[NMeV]P[dNMeA]-X23) returned a TGI greater than 100 µM.

Source of the values: PubChem BioAssay (NCI).
